# Out of some 370,000 compounds screened, about 150 (0.041%) were called active. The shares of active, inactive and inconclusive entries below differ from those in the screen. Calls follow the shape of the dose curve; as a rule, active = well fitted inhibition curve with a large enough effect; inconclusive = small, poorly fitted or top-dose-only effect; inactive = flat fitted curve, though single readings scatter. No potency is given beside an inconclusive call; the fits are too rough.
# Target: Beta-lactamase (Escherichia coli (strain K12)) (UniProt P00811)
# Assay: qHTS Inhibitors of AmpC Beta-Lactamase (assay with detergent); also: nearly all actives have a fitted effect of over 25% in size
# Details: AmpC hydrolysis of nitrocefin, absorbance 480 nm, 0.01% Triton; series mostly up to 114 µM
# Procedure, shortened: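 20 mM phosphate pH 7.0 + 0.01% (detergent screen) or 0.0001% Triton X-100; 5.3 nM AmpC reagent; cpd preinc 15 min RT; nitrocefin (800 uM stock) to start; A480 q20 s × 4 min; Activity was normalised to no-enzyme and no-compound control wells.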
# Potency is read from the fitted curve at half-maximal effect; tags tell the direction and shape of the fitted curve.
# Sequence of UniProt P00811 (P00811 whole entry, looked up): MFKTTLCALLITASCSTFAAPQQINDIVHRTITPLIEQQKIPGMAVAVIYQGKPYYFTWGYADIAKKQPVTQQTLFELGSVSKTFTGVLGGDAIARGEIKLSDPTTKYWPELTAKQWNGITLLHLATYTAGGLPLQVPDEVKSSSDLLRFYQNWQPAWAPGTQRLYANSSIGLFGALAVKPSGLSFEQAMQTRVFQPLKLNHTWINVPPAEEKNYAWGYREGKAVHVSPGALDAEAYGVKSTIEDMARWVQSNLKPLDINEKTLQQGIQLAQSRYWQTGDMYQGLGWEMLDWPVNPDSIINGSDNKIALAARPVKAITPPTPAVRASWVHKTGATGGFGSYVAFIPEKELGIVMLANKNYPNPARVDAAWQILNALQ
row,Compound,Potency
1,S=C1NNC2(NN1)C1CC3CC(C1)CC2C3,"inconclusive [inhibitor, partial curve]"
2,COc1ccc(S(=O)(=O)N2CCOC2CNC(=O)C(=O)NCc2ccccc2OC)cc1 (stereo not drawn),"inconclusive [inhibitor, full curve, poor fit]"
3,O=C(NS(=O)(=O)c1ccccc1)c1ccccc1F,"inconclusive [inhibitor, full curve]"
4,CN(C)S(=O)(=O)c1ccc(C(=O)NCc2ccc3[nH]c4c(c3c2)CCCC4)cc1,"inconclusive [inhibitor, full curve, poor fit]"
5,CCN(CC)CCNC(=O)c1ccc(NC(=O)c2ccc(C(=O)c3ccccc3)cc2)cc1,inactive
6,CCOC(=O)C(=O)N1CCC(C(=O)OCC)CC1,inactive
7,COc1ccc(N2CCN(S(=O)(=O)c3cccs3)CC2)cc1,"inconclusive [inhibitor, full curve, poor fit]"
8,CCc1nc2ccc(C(=O)N3CCN(c4cccc(C(F)(F)F)c4)CC3)cc2nc1CC,inactive
9,COC(=O)c1ccccc1NC(=O)CN1CCN(C23CC4CC(CC(C4)C2)C3)CC1,"inconclusive [inhibitor, full curve, poor fit]"
10,CCN1CCN(c2cc(C)c3cc(NC(=O)c4cnccn4)ccc3n2)CC1,"inconclusive [inhibitor, full curve, poor fit]"
11,c1coc(-c2nnc3sc(-c4cccs4)nn23)c1,inactive
12,O=C(O)c1ccc(CN2C(=O)c3cccc4c([N+](=O)[O-])ccc(c34)C2=O)cc1,inactive
13,CC(C)[C@H](NC(=O)c1ccccc1)C(=O)OCC(=O)c1ccc2c(c1)NC(=O)CO2,"inconclusive [inhibitor, single point]"
14,O=C(CSc1ncnc2nc[nH]c12)N1CCN(c2ccccc2)CC1,"inconclusive [inhibitor, single point]"
15,O=C(c1cc([N+](=O)[O-])ccc1N1CCN(S(=O)(=O)c2ccc(Cl)c(Cl)c2)CC1)N1CCOCC1,"inconclusive [inhibitor, partial curve, poor fit]"
16,CCOC(=O)c1ccc2c(c1)C1C=CCC1C(C(=O)OCC)N2 (stereo not drawn),"inconclusive [inhibitor, partial curve, poor fit]"
17,O=C(CCN1C(=O)c2ccccc2C1=O)N1CCOCC1,"inconclusive [inhibitor, partial curve, poor fit]"
18,COc1ccc(S(=O)(=O)N/N=C\c2ccc3c(c2)OCO3)cc1,inactive
19,CCOC(=O)c1cc(-c2ccccc2)sc1NC(=O)c1ccc(OC)cc1,inactive
20,COc1ccc(NC(=S)N2CCC(C(=O)c3ccc(C)cc3)CC2)cc1,"inconclusive [inhibitor, full curve, poor fit]"
21,Cc1ccc(OCC(=O)Nc2nnc(SCc3cc(=O)c4ccccc4[nH]3)s2)cc1C,inactive
22,CC(C)n1c(SCC(=O)NCc2ccco2)nc2c1c(=O)n(C)c(=O)n2C,"inconclusive [inhibitor, full curve, poor fit]"

row,Compound,Potency
1,C/C(NC(=O)c1cccs1)=C1\C(=O)C[C@@H]2[C@H]1C2(C)C,"inconclusive [inhibitor, single point]"
2,Cc1nc(CCNC(=O)CC2C(=O)NCCN2Cc2ccccc2)sc1C (stereo not drawn),"inconclusive [inhibitor, full curve]"
3,CCNCCC(CCC(C)C)c1ccc2c(c1)OCO2 (stereo not drawn),"inconclusive [inhibitor, partial curve]"
4,COCCNc1nc(C)cc(-c2cc(-c3ccc(Cl)cc3)on2)n1,inactive
5,CCOC(=O)N1CCN(C(=O)c2ccc(N3C(=O)c4ccccc4C3=O)cc2)CC1,"inconclusive [inhibitor, full curve, poor fit]"
6,Cc1ccc2c(CN3CC=C(c4ccccc4)CC3)cc(=O)oc2c1C,inactive
7,Cc1[nH]nc2c1C1(CCN(Cc3ccccc3)CC1)C(C#N)=C(N)O2,"inconclusive [inhibitor, single point]"
8,O=[N+]([O-])c1ccc(S(=O)(=O)Nc2ccncc2)cc1,"inconclusive [inhibitor, full curve, poor fit]"
9,CCOc1ccccc1NC(=O)N1CCCc2ccccc21,"inconclusive [inhibitor, full curve]"
10,CCOC(=O)C(C)n1cnc2c(nnn2-c2ccc(OC)cc2)c1=O (stereo not drawn),"inconclusive [inhibitor, single point]"
11,O=C(NC1(C(F)(F)F)C(=O)Nc2c1c(=O)[nH]c(=O)n2CCc1ccccc1)c1ccc(Cl)cc1 (stereo not drawn),inactive
12,O=C(CSc1nnc(NCc2ccccc2)s1)NC1CCS(=O)(=O)C1 (stereo not drawn),"inconclusive [inhibitor, full curve, poor fit]"
13,COc1ccc(NC(=O)c2cnc(SCC(=O)NCCc3ccccc3)n(C)c2=O)cc1,"inconclusive [inhibitor, full curve]"
14,CCN(CC)C(C(=O)Nc1ccc2c(c1)OCO2)c1ccccc1 (stereo not drawn),"inconclusive [inhibitor, partial curve, poor fit]"
15,O=C(CCC(=O)c1ccc(Oc2ccccc2)cc1)Nc1cccc(Cl)c1,"inconclusive [inhibitor, partial curve, poor fit]"
16,CC1=C(C(=O)OC(C)C)C(c2cccnc2)n2ncnc2N1 (stereo not drawn),"inconclusive [inhibitor, full curve, poor fit]"
17,Cn1c(SCC(N)=O)nnc1-c1cnccn1,inactive
18,Cc1cc(C)c(C)c(S(=O)(=O)N2CCC(C(=O)N3CC(C)CC(C)C3)CC2)c1C (stereo not drawn),"inconclusive [inhibitor, full curve, poor fit]"
19,Cc1ccc(S(=O)(=O)NCc2ccncc2)c(C)c1C,inactive
20,CC(Nc1ccccc1)C(=O)Nc1ccc(F)cc1 (stereo not drawn),"inconclusive [inhibitor, full curve, poor fit]"
21,COc1cc(NS(=O)(=O)c2ccc3c(c2)CC(=O)N3)cc(OC)c1OC,inactive

# Source: PubChem BioAssay AID485294 (National Center for Advancing Translational Sciences (NCATS), 2010)
